Test results from PMC4336329 (PLoS ONE, 2015).
Among all 310,000 compounds or so, about 2,200 (0.71%) showed an effect of 50% or more. The effect is printed as a negative number. The list shows a part of the results.

target: human ether-à-go-go-related gene (hERG) potassium channel (human, UniProt Q12809); assay: primary screen, population patch clamp on CHO cells stably expressing hERG
Sequence (Q12809 whole entry, looked up): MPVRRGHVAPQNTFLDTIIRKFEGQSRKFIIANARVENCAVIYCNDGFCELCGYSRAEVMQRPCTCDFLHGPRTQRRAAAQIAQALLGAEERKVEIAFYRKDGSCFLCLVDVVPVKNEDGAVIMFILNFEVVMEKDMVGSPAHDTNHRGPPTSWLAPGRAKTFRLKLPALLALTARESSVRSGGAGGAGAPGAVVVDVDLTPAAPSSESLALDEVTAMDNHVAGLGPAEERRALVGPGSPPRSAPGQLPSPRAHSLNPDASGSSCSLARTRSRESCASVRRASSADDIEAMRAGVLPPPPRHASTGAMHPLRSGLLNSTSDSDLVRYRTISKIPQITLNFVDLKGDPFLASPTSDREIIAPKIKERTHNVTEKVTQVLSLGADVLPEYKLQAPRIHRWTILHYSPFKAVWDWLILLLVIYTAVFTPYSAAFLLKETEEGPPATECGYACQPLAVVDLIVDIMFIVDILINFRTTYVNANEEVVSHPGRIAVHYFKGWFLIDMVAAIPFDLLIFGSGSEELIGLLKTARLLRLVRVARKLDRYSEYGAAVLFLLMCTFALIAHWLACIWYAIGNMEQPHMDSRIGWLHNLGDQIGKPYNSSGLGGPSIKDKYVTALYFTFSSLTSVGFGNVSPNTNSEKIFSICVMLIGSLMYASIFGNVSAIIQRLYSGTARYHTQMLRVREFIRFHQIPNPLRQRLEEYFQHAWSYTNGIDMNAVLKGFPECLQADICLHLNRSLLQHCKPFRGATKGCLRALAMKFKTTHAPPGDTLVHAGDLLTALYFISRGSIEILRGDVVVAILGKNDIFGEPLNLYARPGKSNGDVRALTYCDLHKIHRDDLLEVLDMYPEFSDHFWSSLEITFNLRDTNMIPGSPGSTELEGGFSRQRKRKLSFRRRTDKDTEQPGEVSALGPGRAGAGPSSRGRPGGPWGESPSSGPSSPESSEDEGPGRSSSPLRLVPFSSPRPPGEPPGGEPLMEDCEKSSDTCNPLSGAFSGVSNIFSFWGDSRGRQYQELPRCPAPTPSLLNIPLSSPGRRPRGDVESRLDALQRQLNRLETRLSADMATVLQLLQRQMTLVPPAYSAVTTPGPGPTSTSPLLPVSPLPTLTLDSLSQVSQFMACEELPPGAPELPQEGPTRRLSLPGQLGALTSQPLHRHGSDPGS

| SMILES | hERG current change (%, negative = inhibition) at 1uM [%] |
| --- | --- |
| CC(=O)Oc1ccc(/C=C2\N=C(C3CCCCC3)OC2=O)cc1 | 13.3 |
| CCOC(=O)C1=NNC2(CC(=O)N(c3cc(C)cc(C)c3)C2=O)C1 (stereo not shown) | 23.8 |
| CCCNC(=O)c1nc(C)n(-c2ccc([N+](=O)[O-])cc2)n1 | -3.29 |
| COc1ccc(N=Cc2c(O)n(C)c(=O)[nH]c2=O)cc1 | 16.7 |
| COc1ccc(N2CC(C(=O)NCCS(=O)(=O)N3CCN(c4ccccc4)CC3)CC2=O)cc1 (stereo not shown) | 13.8 |
| Cc1nc2cc(-c3ccccc3)nn2c(C)c1CCC(=O)N1CCN(c2ccccc2)CC1 | -14.6 |
| O=C(NNS(=O)(=O)c1ccc(Cl)cc1)c1ccc(S(=O)(=O)N2CCCCC2)cc1 | 0.353 |
| O=Cc1ccc(N2CCCC2)o1 | 11.1 |
| COc1cccc(NC(=O)Cn2cnc3sc(C)c(S(=O)(=O)N4CCCCC4)c3c2=O)c1 | 9.61 |
| C[N+]12CCC(CC1)C(C#N)(N1CCOCC1)C2.[I-] (stereo not shown) | 11.8 |
| COc1ccccc1CNC(=O)COC(=O)/C=C/c1cccs1 | 16.2 |
| CC1=NN(C(=O)Cc2ccccc2)C(O)(c2cccnc2)C1 (stereo not shown) | -6.16 |
| O=C(Cc1ccc(Br)cc1)Nc1nc2ccccc2[nH]1 | 15.2 |
| CCc1ccc2oc(-c3cccc(NC(=O)c4cccnc4)c3)nc2c1 | -0.871 |
| CC(C)(C)NC(=O)N1CCCC(C(=O)c2cccc(Cl)c2)C1 (stereo not shown) | 13.5 |
| CCCCCSc1nnc2c(n1)OC(c1cccn1C)N(C(C)=O)c1ccccc1-2 (stereo not shown) | 8.98 |
| NS(=O)(=O)c1ccc(NC(=O)c2cc(-c3cccs3)nc3ccccc23)cc1 | 1.54 |
| Cc1nn(Cc2ccccc2)c(Cl)c1C(=O)OC(C)C#N (stereo not shown) | 10.3 |
| O=C(NCCc1ccco1)C(=O)NCC1OCCCN1S(=O)(=O)c1ccc(F)cc1 (stereo not shown) | 6.84 |
| CCOc1cc(/C=N/NC(=O)C(C)Sc2ccccn2)ccc1O (stereo not shown) | 3.55 |
| COc1cc(-c2nnc(CSc3nnc(Nc4ccc(Oc5ccccc5)cc4)s3)o2)cc(OC)c1OC | -3.05 |
| CC(=O)Nc1c(F)cc(Br)cc1F | 16.9 |

| SMILES | hERG current change (%, negative = inhibition) at 1uM [%] |
| --- | --- |
| Cc1noc(C)c1CSCC(=O)N(CC(C)C)c1c(N)n(Cc2ccccc2)c(=O)[nH]c1=O | 2.14 |
| Cn1nnc2c(sc3nc(N4CCOCC4)c4c(c32)CCCC4)c1=O | -2.97 |
| Cc1ccc(SCCC(=O)OC(C)C(=O)Nc2ccccc2)cc1 (stereo not shown) | 5.51 |
| Cn1c(O)c(C(c2ccccn2)c2c(O)n(C)c(=S)[nH]c2=O)c(=O)[nH]c1=S | 3.85 |
| CC(C)C[C@H](N)c1nnc(SCC(=O)Nc2ccc(Br)cc2)o1 | 8.89 |
| N#Cc1cccnc1N1CCN(C(=O)c2ccc3c(c2)S(=O)(=O)c2ccccc2C3=O)CC1 | -5.57 |
| O=C1c2ccccc2NC(c2cccc([N+](=O)[O-])c2)N1O (stereo not shown) | 9.58 |
| O=C1CC(N2CCC(c3nc4ccccc4o3)CC2)C(=O)N1Cc1cccs1 (stereo not shown) | -9.95 |
| O=Cc1cn(CC(=O)N2CCOCC2)c2ccccc12 | 11.1 |
| O=C(COC(=O)c1ccc(NS(=O)(=O)c2ccc(Br)s2)cc1)NC1CCCC1 | 10.9 |
| CN(C)c1cc(-c2ccc(Cl)c(Cl)c2)oc(=O)c1Cl | 13.4 |
| COC(=O)CCC(=O)NC1CC(C)(C)Cc2c1cnn2-c1ccccc1 (stereo not shown) | 0.508 |
| CN=C1SC(CC(=O)Nc2sc(C)c(C)c2C(=O)OC)C(=O)N1C (stereo not shown) | 2.13 |
| CN(c1ccc(C(=O)Nc2ccc(F)cc2F)cc1)S(=O)(=O)c1ccccc1 | 6.03 |
| COc1ccc(CCNC(=O)CN2C(=O)NC(CCSC)C2=O)cc1 (stereo not shown) | 7.53 |
| O=C(Nc1ccc2c(c1)OCCO2)C1CCN(C(=O)c2ccc(Br)cc2)CC1 | 1.28 |
| COC(=O)c1c(NC(=O)c2ccccc2OC)sc(C(=O)N2CCOCC2)c1C | 4.67 |
| CCN(CC)S(=O)(=O)c1cc(C(=O)OCC(=O)Nc2cccc(S(=O)(=O)N(C)C)c2)ccc1F | 14.4 |
| COc1cccc(/C=C2\SC(=S)N(CC(=O)N(C)C3CCS(=O)(=O)C3)C2=O)c1 (stereo not shown) | 2.27 |
| O=C(Cc1ccc(Br)cc1)N1CCN(C(=O)c2ccccc2)CC1 | -4.11 |
| CCC(=O)Nc1ccc2c(c1)nc1n2CCN(CCOC)C1 | 16 |
| O=[N+]([O-])c1ccc(Cl)cc1CN1CCCCCC1 | 6.63 |

| SMILES | hERG current change (%, negative = inhibition) at 1uM [%] |
| --- | --- |
| CCOC(=O)c1ccc(NC(=O)Cn2ccc([N+](=O)[O-])n2)cc1 | -12.1 |
| COCC(=O)Nc1ncc(S(=O)(=O)c2ccc([N+](=O)[O-])cc2)s1 | 3.46 |
| O=C(O)c1ccc(N/N=C/C2=C(N3CCOCC3)C(=C\c3ccccc3)/CC2)cc1 | 2.74 |
| Cn1c(CNC(=O)CNS(=O)(=O)c2ccc(F)cc2F)cc(=O)n(C)c1=O | 29.9 |
| N#Cc1ccc(CN2CCN(C(=O)CCNS(=O)(=O)c3ccc(F)c(F)c3)CC2)cc1 | -62.3 |
| CCOc1cccc(-c2nnc3n2N=C(c2cc(OC)ccc2OC)CS3)c1 | 16.7 |
| CCC(=O)Oc1ccc2c(C)cc(=O)oc2c1C | 7.33 |
| COc1ccc(NC(=O)C2CCCN(c3nn4c(=O)cc(C)nc4s3)C2)c(OC)c1 (stereo not shown) | 15 |
| Cc1ccc(-c2nc(C3CCN(S(=O)(=O)c4ccc(C(C)(C)C)cc4)CC3)no2)cc1 | 14.4 |
| CN1CCN(C(=O)c2cn(-c3ccccc3)nc2-c2cccs2)CC1 | 3.79 |
| Cn1c(=O)c2c(nc(NCCOc3ccc(F)cc3)n2C)n(C)c1=O | 1.51 |
| N#Cc1c(NC(=O)CSc2nc3c(c(C(F)(F)F)n2)CCc2ccccc2-3)sc2c1CCCC2 | -5.59 |
| CCOC(=O)N1CCC(NCCNC(=O)c2ccco2)CC1.O=C(O)C(=O)O | 12.6 |
| COc1cc(NC(=O)Nc2ccccc2OC)c(OC)cc1NC(=O)CN1CCCCC1 | 15.2 |
| CCn1ccnc1CN(C)Cc1nc(-c2ccc(C(=O)OC)cc2)no1 | 3.41 |
| O=S(=O)([O-])c1cc(OS(=O)(=O)c2ccccc2)cc2ccccc12.[Na+] | 17.8 |
| Cc1cccc(NC(=O)CSc2nnc(C3CC3)n2CC2CCCO2)c1 (stereo not shown) | 10.2 |
| Cc1cc2c(cc1S(=O)(=O)Nc1cccc(F)c1C)NC(=O)CO2 | 12 |
| COc1ccc(C(C(=O)NC2CCCC2)N(C(=O)c2ccoc2C)c2ccc(C)cc2)cc1 (stereo not shown) | -2.57 |
| Cc1cc(Cl)ccc1OCC(=O)NNC(=O)c1cccnc1 | 14.5 |
| COc1ccccc1NC(=S)N(CCN1CCOCC1)Cc1ccccc1F | 10.9 |
| O=C1/C(=C/c2cccnc2)SC(=S)N1c1ccccc1 | 16.4 |

| SMILES | hERG current change (%, negative = inhibition) at 1uM [%] |
| --- | --- |
| Cc1c(CC(=O)N2CCN(C(=O)C3COc4ccccc4O3)CC2)c(=O)oc2cc(O)c(Cl)cc12 (stereo not shown) | 0.833 |
| COc1ccc(C(=O)NC(=S)Nc2ccc([N+](=O)[O-])cc2C)cc1OC | -6.85 |
| CC(C)(C)c1ccc(C(=O)Nc2ccc(NC(=O)c3ccco3)cc2)cc1 | 5.63 |
| COc1cc2c(=O)n(Cc3ccccc3)c(=O)n(CC(=O)C(C)(C)C)c2cc1OC | -0.726 |
| O=C1S/C(=C\c2ccc(N3CCOCC3)o2)C(=O)N1Cc1c(F)cccc1Cl | 6.4 |
| CCOC(=O)c1sc(NC(=S)NC(=O)C2CC2)cc1C | 14.4 |
| CCCNC(=O)Cn1cnc2sc(C(=O)N3CCC4(CC3)OCCO4)c(C)c2c1=O | 13.4 |
| Cc1ccccc1Nc1nnc(SCc2cc(=O)n3ccsc3n2)s1 | 2.8 |
| COc1ccccc1Nc1nc(N(C)c2ccccc2)nc(N)c1[N+](=O)[O-] | 8.5 |
| CCOC(=O)c1cc(-c2ccccc2)nc2c1c(C)nn2-c1ccccn1 | 4.42 |
| O=c1[nH]c(=S)n(-c2ccccc2Cl)c(O)c1C=NCCN1CCNCC1 | 10.1 |
| COc1ccc(C(=O)NCCS(=O)(=O)NCc2ccco2)cc1 | 18.4 |
| C=CCN(c1ccccc1)S(=O)(=O)c1cccc(C(=O)NCC(c2ccc(F)cc2)N2CCOCC2)c1 (stereo not shown) | -0.427 |
| CCOc1ccc(NC(=O)c2ccc(CC)s2)c([N+](=O)[O-])c1 | 6.76 |
| CCCCn1c(C(C)O)nc2ccccc21 (stereo not shown) | 11.9 |
| COc1ccc(/C=C/c2ccccc2)cc1[C@H]1[C@@H]2C=CCC[C@@]2(C)C(=O)N1Cc1ccccc1 | 11.7 |
| CCCN1C(=O)/C(=C/c2ccc(N3CCOCC3)cc2)NC1=S | 1.14 |
| COC(=O)c1cc(CN2CCN(c3ccccc3C)CC2)ccc1O.Cl | 6.31 |
| Cc1cc(C)cc(NC(=O)CCCN2C(=O)C(c3ccccc3)Oc3cccnc32)c1 (stereo not shown) | 27.6 |
